No constants are given. Whether binding was seen depends on the method and setting. Binding seen in cells or lysates may run through a third protein. Some binding calls cover weakened binding; strength is not graded here. Tags and fused reporters may be left off the sequences shown.
B1: ARF6-Myc, in transgenic Arabidopsis plants (protein, UniProt Q9ZTX8 1-935)
chain: MRLSSAGFNPQPHEVTGEKRVLNSELWHACAGPLVSLPPVGSRVVYFPQGHSEQVAASTNKEVDAHIPNYPSLHPQLICQLHNVTMHADVETDEVYAQMTLQPLNAQEQKDPYLPAELGVPSRQPTNYFCKTLTASDTSTHGGFSVPRRAAEKVFPPLDYSQQPPAQELMARDLHDNEWKFRHIFRGQPKRHLLTTGWSVFVSAKRLVAGDSVLFIWNDKNQLLLGIRRANRPQTVMPSSVLSSDSMHLGLLAAAAHAAATNSRFTIFYNPRASPSEFVIPLAKYVKAVYHTRVSVGMRFRMLFETEESSVRRYMGTITGICDLDPTRWANSHWRSVKVGWDESTAGERQPRVSLWEIEPLTTFPMYPSPFPLRLKRPWPPGLPSFHGLKEDDMGMSMSSPLMWDRGLQSLNFQGMGVNPWMQPRLDTSGLLGMQNDVYQAMAAAALQDMRGIDPAKAAASLLQFQNSPGFSMQSPSLVQPQMLQQQLSQQQQQLSQQQQQQQQLSQQQQQQLSQQQQQQLSQQQQQQLSQQQQQQAYLGVPETHQPQSQAQSQSNNHLSQQQQQVVDNHNPSASSAAVVSAMSQFGSASQPNTSPLQSMTSLCHQQSFSDTNGGNNPISPLHTLLSNFSQDESSQLLHLTRTNSAMTSSGWPSKRPAVDSSFQHSGAGNNNTQSVLEQLGQSHTSNVPPNAVSLPPFPGGRECSIEQEGSASDPHSHLLFGVNIDSSSLLMPNGMSNLRSIGIEGGDSTTLPFTSSNFNNDFSGNLAMTTPSSCIDESGFLQSSENLGSENPQSNTFVKVYKSGSFGRSLDISKFSSYHELRSELARMFGLEGQLEDPVRSGWQLVFVDRENDVLLLGDDPWPEFVSSVWCIKILSPQEVQQMGKRGLELLNSAPSSNNVDKLPSNGNCDDFGNRSDPRNLGNGIASVGGSFNY
B2: ARF6-Myc, in Arabidopsis mesophyll protoplasts (protein, UniProt Q9ZTX8 1-935)
chain: B1 chain

Sequences of proteins named here, by UniProt entry; tags and fusion partners are left off.
UniProt Q8S307: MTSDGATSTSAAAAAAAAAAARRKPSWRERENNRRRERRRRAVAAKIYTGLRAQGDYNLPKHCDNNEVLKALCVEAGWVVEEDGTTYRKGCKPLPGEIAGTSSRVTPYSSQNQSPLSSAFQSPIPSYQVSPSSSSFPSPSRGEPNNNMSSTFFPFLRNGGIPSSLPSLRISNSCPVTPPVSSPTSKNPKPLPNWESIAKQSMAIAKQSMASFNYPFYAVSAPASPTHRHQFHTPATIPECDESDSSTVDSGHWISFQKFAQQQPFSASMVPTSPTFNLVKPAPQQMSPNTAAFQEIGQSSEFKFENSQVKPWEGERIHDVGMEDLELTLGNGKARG

Columns and labels:
[1] = target: BZR1-YFP, in transgenic Arabidopsis plants (Arabidopsis thaliana) (UniProt Q8S307); test: co-IP; transgenic Arabidopsis plants expressing both fusion proteins from the 35S promoter, treated with 100 nM BL for 4 hr; IP with anti-GFP on protein A/G agarose beads, blot with anti-Myc; IP buffer 50 mM Tris-Cl pH7.5, 1 mM EDTA, 75 mM NaCl, 0.1% Triton X-100, 5% Glycerol
[2] = target: T1, PIF4-YFP, in transgenic Arabidopsis plants (Arabidopsis thaliana) (UniProt Q8W2F3); test: as above
T1 sequence: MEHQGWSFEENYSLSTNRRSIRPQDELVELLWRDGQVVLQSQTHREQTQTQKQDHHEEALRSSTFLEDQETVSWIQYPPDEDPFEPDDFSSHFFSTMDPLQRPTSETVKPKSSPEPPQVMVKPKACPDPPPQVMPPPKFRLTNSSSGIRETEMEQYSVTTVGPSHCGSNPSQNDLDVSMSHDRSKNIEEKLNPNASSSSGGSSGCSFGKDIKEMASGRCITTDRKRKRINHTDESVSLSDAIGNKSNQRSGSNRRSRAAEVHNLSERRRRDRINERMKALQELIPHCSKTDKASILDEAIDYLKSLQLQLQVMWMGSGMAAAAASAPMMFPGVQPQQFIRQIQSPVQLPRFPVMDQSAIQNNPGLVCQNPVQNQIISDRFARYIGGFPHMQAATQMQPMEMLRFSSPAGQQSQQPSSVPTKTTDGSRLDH

[3] = target: T2, PIF4-GFP, in Arabidopsis mesophyll protoplasts (Arabidopsis thaliana) (UniProt Q8W2F3); test: co-IP; Arabidopsis mesophyll protoplasts transfected to express ARF6-Myc alone or with PIF4-GFP and rga-Δ17-Myc; IP with anti-GFP, blots with anti-Myc or anti-GFP
T2 sequence: T1 sequence

[4] = target: T2, PIF4-GFP, in Arabidopsis mesophyll protoplasts (Arabidopsis thaliana); test: co-IP; Arabidopsis mesophyll protoplasts transfected and incubated overnight; IP with anti-GFP, blots with anti-Myc or anti-GFP; ARF6-Myc with PIF4-GFP also with co-transfected bzr1-1D-Myc (interaction increased)
[5] = target: T3, RGA-GFP, in Arabidopsis mesophyll protoplasts (Arabidopsis thaliana) (UniProt Q9SLH3); test: as above
T3 sequence: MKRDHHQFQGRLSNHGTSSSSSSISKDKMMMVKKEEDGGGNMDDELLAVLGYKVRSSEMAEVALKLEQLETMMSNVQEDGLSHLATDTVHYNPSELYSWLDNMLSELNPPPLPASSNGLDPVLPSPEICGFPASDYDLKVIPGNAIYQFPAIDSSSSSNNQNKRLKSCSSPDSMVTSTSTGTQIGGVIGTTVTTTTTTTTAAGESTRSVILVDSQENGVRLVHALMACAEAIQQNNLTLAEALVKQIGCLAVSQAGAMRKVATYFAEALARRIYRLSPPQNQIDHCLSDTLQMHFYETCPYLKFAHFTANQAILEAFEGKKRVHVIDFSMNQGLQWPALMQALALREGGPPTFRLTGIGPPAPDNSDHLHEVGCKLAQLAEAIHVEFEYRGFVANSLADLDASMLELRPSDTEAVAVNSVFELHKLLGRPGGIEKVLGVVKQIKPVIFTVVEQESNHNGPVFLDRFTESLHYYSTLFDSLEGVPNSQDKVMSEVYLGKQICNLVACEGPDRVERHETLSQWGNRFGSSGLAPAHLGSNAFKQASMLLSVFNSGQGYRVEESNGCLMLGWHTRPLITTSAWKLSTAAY

Binder	binding [1]	binding [2]	binding [3]	binding [4]	binding [5]
B1	binds	binds	–	–	–
B2	–	–	binds	binds	binds

— publication PMC4075450
